# Results published in PubChem BioAssay AID1347120 (National Center for Advancing Translational Sciences (NCATS), 2019).
# About 930 (0.24%) of roughly 390,000 compounds were called active. Inconclusive means that the source gave no clear call. Such entries were picked first, then a sample of the others. Calls come from the whole dose curve; as a rule, active = well fitted activation curve with a large enough effect; inconclusive = small, poorly fitted or top-dose-only effect; inactive = no such curve, though single readings can be large or run the other way. Potencies of inconclusive entries are doubtful fits and often do not repeat.
# Assay: qHTS for Suppressors of FUS Proteinopathy: Primary screen using FUS-linked yeast assay; note: nearly all actives have a fitted effect of over 55% in size;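 for growth rescue (activation): plate controls were DMSO vehicle for no effect and reference control for full effect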
# Conditions: S. cerevisiae FUS-expressing, OD600, 24 h; Potency: growth rescue; growth rescue (activation): at 76.6 µM (top of the series)
# In short: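 FUS-expressing yeast, raffinose-pregrown, induced in 2% galactose minimal medium at OD 0.005; compounds in a dilution series, 24hr at 30C. Growth restoration read as absorbance at 600 nm. CP55940 positive control, DMSO negative.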
# Potency is the fitted concentration of half-maximal effect; tags give direction and shape of the fitted curve.
Compound,Potency,growth rescue (activation)
C(=N\Nc1nc(-c2ccccc2)cs1)/c1cccnc1,"inconclusive: 44.7 µM [activator, partial curve, poor fit]",
CCCC1=Nc2cc(C(=O)NCCc3ccc(OC)cc3OC)ccc2Sc2ccccc21,"inconclusive: 12.6 µM [activator, partial curve]",
Cc1ccc(-c2nc3nc(C)cc(Nc4ccccc4O)n3n2)cc1,,inactive: -6.13%
COc1ccc(-c2cn3nc(C)c(C)nc3n2)cc1OC,"inconclusive: 28.2 µM [activator, partial curve, poor fit]",
C[C@@H](NC(=O)c1nc[nH]c1C(=O)N[C@@H](Cc1ccccc1)C(=O)OC(C)(C)C)c1ccccc1,active: 20 µM,
CCOC(=O)c1ccccc1NC(=O)N1CCC(N2CCN(Cc3ccccc3)C(=O)C2=O)CC1,"inconclusive: 5.01 µM [activator, full curve, poor fit]",
COC(=O)c1scc(-c2ccc(C)cc2)c1S(=O)(=O)N1CCN(c2ccc(OC)cc2)CC1,active: 22.4 µM,
Cc1ccccc1NC(=O)c1c(C)nn(-c2ccccc2)c1Cl,,inactive: 10.6%
Cc1ccc(O)c(C(=O)c2cc(C#N)c(=O)n(Cc3ccccc3)c2)c1,"inconclusive: 25.1 µM [activator, partial curve, poor fit]",
Cc1ccc(C(=O)N/C(=C\c2ccccc2)C(=O)NCc2cccnc2)cc1,,inactive: 11.1%
CC(C)CN(C(=O)CSc1nn(-c2ccc(Cl)cc2)c(=S)s1)C1CCS(=O)(=O)C1 (stereo not drawn),"inconclusive: 31.6 µM [activator, single point]",
CCCc1cc(=O)oc2cc(OCC(=O)N(C)C)c(Cl)cc12,,inactive: 8.06%
O=C(Nc1ccc2c(c1)OCO2)c1cc(C2CCCN(C(=O)CCc3ccccc3)C2)on1 (stereo not drawn),"inconclusive: 31.6 µM [activator, single point]",
O=C(C1CC1)N1CCc2cc(Br)cc(S(=O)(=O)NCC3COc4ccccc4O3)c21 (stereo not drawn),"inconclusive: 44.7 µM [activator, single point]",
CCOc1ccc(CNC(=O)c2ccc3c(c2)c(C)c(C)n3Cc2ccc(Cl)cc2)cc1,"inconclusive: 39.8 µM [activator, single point]",
O=[N+]([O-])c1cc(-n2cnnn2)ccc1N1CCC(Cc2ccccc2)CC1,"inconclusive: 35.5 µM [activator, partial curve, poor fit]",
COc1cccc(C(=O)O[C@H]2[C@H](Cc3ccccc3)NS(=O)(=O)[C@H]3C[C@@H]4C=C[C@]23O4)c1,"inconclusive: 50.1 µM [activator, single point]",
CCOC(=O)N1CCC(NC(=O)c2ccc3c(c2)N(C)CCS3)CC1,"inconclusive: 39.8 µM [activator, partial curve, poor fit]",
CC1(C)CC(NCCN2CCN(C3=CC(=C(C#N)C#N)CC(C)(C)C3)CC2)=CC(=C(C#N)C#N)C1,,inactive: -31.1%
COc1ccc(N2CCC(CNC(=S)Nc3ccc(C)cc3C)C2)cc1 (stereo not drawn),"inconclusive: 35.5 µM [activator, single point]",
Cc1ccc(N(C)S(=O)(=O)c2nnc(NC(=O)C3CCCCC3)s2)cc1,,inactive: -17.4%

Compound,Potency,growth rescue (activation)
CCOc1ccccc1NC(=S)C(=C([O-])c1ccc2c(c1)OCCO2)[n+]1ccc(CC)cc1,"inconclusive: 56.2 µM [activator, partial curve, poor fit]",
S=c1[nH]nc(-c2ccc(Cl)cc2Cl)n1-c1ccc(Cl)cc1,,inactive: 9.55%
Cc1ccc(-c2nnc3ccc(SCC(=O)NCc4ccco4)nn23)cc1,"inconclusive: 50.1 µM [activator, single point]",
CCOc1ccc2[nH]c(=O)c(CN(CCO)C(=O)c3ccc(F)cc3)cc2c1,,inactive: 6.38%
COc1ccc(C2c3c(n(C)c4ccccc34)C(=O)N2CC(=O)Nc2ccccc2F)cc1 (stereo not drawn),"inconclusive: 50.1 µM [activator, single point]",
COc1ccc(Cl)cc1NC(=O)CN(c1cccc(C)c1C)S(=O)(=O)c1ccccc1,active: 22.4 µM,
O=C(CC1N=C2c3ccccc3N=C(SCc3ccccc3F)N2C1=O)NCc1ccc2c(c1)OCO2 (stereo not drawn),"inconclusive: 50.1 µM [activator, single point]",
COc1ccc2[nH]c(=S)[nH]c2c1,,inactive: -19.7%
Cn1cnnc1SCC(=O)c1c[nH]c2ccccc12,"inconclusive: 17.8 µM [activator, partial curve, poor fit]",
COc1ccc(OC)c(S(=O)(=O)N2CCCCC2C(=O)N2CCN(c3ccc(F)cc3)CC2)c1 (stereo not drawn),"inconclusive: 14.1 µM [activator, partial curve, poor fit]",
COc1cccc(CNc2nc3cc(-c4ccccc4CO)sc3c(=O)n2C)c1,"inconclusive: 39.8 µM [activator, partial curve, poor fit]",
Cc1ccc(/C=C2\SC(=S)N(CCC(=O)NNC(=O)c3ccc(O)cc3)C2=O)cc1,"inconclusive: 15.8 µM [activator, partial curve, poor fit]",
CC(NC(=S)Nc1ccc(S(=O)(=O)N2CCOCC2)cc1)C1CC2CCC1C2 (stereo not drawn),"inconclusive: 28.2 µM [activator, single point]",
COC(=O)[C@]12CCCCC=C1N(Cc1ccc(Cl)cc1Cl)C(=O)[C@H](CC(=O)N1CCN(C(=O)c3ccco3)CC1)C2,"inconclusive: 35.5 µM [activator, single point]",
CCN(CC)C(=O)[C@H]1CC(CC(=O)NCc2cccc(C(F)(F)F)c2)C(=O)N2CCc3c([nH]c4ccccc34)[C@]12C (stereo partly drawn),"inconclusive: 15.8 µM [activator, single point]",
CCCCCNC(=O)C(c1ccc(OC)cc1)n1c(=O)c(-c2cc3ccccc3[nH]2)nc2ccccc21 (stereo not drawn),"inconclusive: 12.6 µM [activator, partial curve]",
O=C(Nc1ccccc1)N1CCC(c2nc(-c3ccc(S(=O)(=O)N4CCOCC4)cc3)no2)CC1,,inactive: 19%
CC1=C(C(=O)OCc2ccc(C)cc2)C(c2ccccc2F)CC(=O)N1 (stereo not drawn),,inactive: 5.59%
CCOC(=O)C1=C(COC(=O)CCOc2cc(C)ccc2C)NC(=O)NC1C (stereo not drawn),"inconclusive: 20 µM [activator, partial curve, poor fit]",
Cc1cc(NS(=O)(=O)c2ccc(NC(=O)C(C)Oc3ccc(Cl)cc3)cc2)no1 (stereo not drawn),"inconclusive: 39.8 µM [activator, partial curve, poor fit]",
COC(=O)c1sc2ccc(C)cc2c1C(=O)OC,,inactive: 4.61%

Compound,Potency,growth rescue (activation)
Cc1ccccc1-c1nc(CS(=O)(=O)CC(=O)NC2CCCC2)c(C)o1,"inconclusive: 35.5 µM [activator, single point]",
COc1ccc(-c2csc3ncnc(N4CCN(S(=O)(=O)c5ccc(C)cc5)CC4)c23)cc1,,inactive: 12.9%
Cc1ccc(NC(=O)c2cc(NC(=O)C3CC=CCC3C(=O)O)ccc2N2CCOCC2)cc1 (stereo not drawn),"inconclusive: 35.5 µM [activator, single point]",
COc1cc2c(=O)c(C(=O)c3ccc(C)c(C)c3)cn(Cc3ccccc3F)c2cc1OC,,inactive: -7.05%
CCC(C)NC(=O)CSc1nc2cc3c(cc2c(=O)n1CCCC(=O)NCCc1ccc(OC)c(OC)c1)OCO3 (stereo not drawn),,inactive: 1.86%
COCCNC(=O)c1ccc2c(=O)n(CCc3ccccc3)c(SCC(=O)CC(=O)OC)nc2c1,"inconclusive: 31.6 µM [activator, partial curve, poor fit]",
CCCn1c(=O)c2ccccc2n2c(SCCOc3ccc(OC)cc3)nnc12,,inconclusive: 68.1% [activator]
COc1ccc(-n2nc([N+](=O)[O-])c(=NC3CCN(Cc4ccccc4)CC3)n2O)cc1,,inactive: 12.3%
O=C(CSc1nnc(-c2cccc(Cl)c2)n1Cc1ccco1)c1ccc(F)cc1,,inactive: 41%
CCn1c(/C=C/c2ccc(O)c(O)c2)nc2ccccc2c1=O,,inactive: 43.3%
O=C(CC1OC(=O)c2ccccc21)Nc1ccc(Cl)c(S(=O)(=O)N2CCCCC2)c1 (stereo not drawn),"inconclusive: 56.2 µM [activator, partial curve, poor fit]",
COc1ccc(NC(=O)C2(C)Cc3c(-c4ccccc4)ccnc3O2)cc1OC (stereo not drawn),"inconclusive: 25.1 µM [activator, partial curve]",
CN(C)S(=O)(=O)c1ccc(Cl)c(NC(=O)COC(=O)/C=C/c2ccc(S(=O)(=O)N3CCOCC3)cc2)c1,"inconclusive: 25.1 µM [activator, partial curve, poor fit]",
CCOc1ccccc1CNC(=O)CCn1c(=O)c2cccn2c2ccc(F)cc21,,inactive: 0.205%
CNC(=O)c1c(NC(=O)c2ccc(S(=O)(=O)N3CC(C)OC(C)C3)cc2)sc2c1CCN(C(C)C)C2 (stereo not drawn),"inconclusive: 28.2 µM [activator, partial curve, poor fit]",
C=CCn1c(SCc2ccccc2C#N)nnc1-c1cc(Br)ccc1O,"inconclusive: 31.6 µM [activator, partial curve, poor fit]",
CCOC(=O)c1c(C)n(-c2ccccc2)c2ccc(OC(=O)c3ccccc3NC(=O)C(C)C)cc12,"inconclusive: 25.1 µM [activator, single point]",
Cc1nc(-c2nc(-c3c(C(=O)NN)noc3C)cs2)cs1,,inactive: 12.8%
COc1ccc(OC)c(S(=O)(=O)NCCCn2ccnc2)c1,,inactive: -10%
O=c1[nH]c(C2CCN(S(=O)(=O)c3ccccc3C(F)(F)F)CC2)nc2c1nnn2Cc1ccccc1,"inconclusive: 35.5 µM [activator, single point]",
CCN(CC)C(=O)[C@H]1C[C@H](CC(=O)NCc2cccc(C(F)(F)F)c2)C(=O)N2CCc3c([nH]c4cc(-c5ccco5)ccc34)[C@]12C,"inconclusive: 11.2 µM [activator, partial curve]",
